Measured values published in PubChem BioAssay AID1963576 (National Center for Advancing Translational Sciences (NCATS), 2024).
About 60 (0.1%) of roughly 46,000 compounds were called active. Roughly 3% stayed inconclusive and do not appear here. The call rests on the fitted dose curve; in most records, active means well fitted inhibition curve with a large enough effect; inconclusive means small, poorly fitted or top-dose-only effect; inactive means no such curve, though single readings can be large or run the other way. The list shows a part of the results.

assay: Primary qHTS assay for Inhibitors of ovarian cancer metastasis using an organotypic tumor microenvironment (TME) model.; further: nearly all actives have a fitted effect of over 65% in size;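 on activity change, negative = inhibition: plate controls were DMSO wells for no effect and tomatine positive control wells for full effect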; details: SKOV3ip1-GFP adhesion/invasion on 3D omental model, fluorescence; series mostly up to 45.8 µM; activity change, negative = inhibition: at the top concentration
Procedure, shortened: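 Adhesion/invasion was scored as fixed GFP-labeled SKOV3ip1 cell counts (488/509 nm), normalized to DMSO and tomatine controls. Cancer cells in serum-free medium, with four compound doses (0.36-46 umol/L), sat 2 hr at RT then 16 hr at 37 C on a 48 hr fibroblast/mesothelial/ECM culture.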

Activity change, negative = inhibition, inactive:
CCOC(=O)c1cc(-c2ccccc2)n(CC(=O)Nc2ccc(OC)cc2OC)c1C 9.29%
O=C(CCc1cn(Cc2ccccc2F)c2ccccc12)NCc1ccc(Cl)cc1 18.2%
CCOC(=O)c1nc(Nc2ccc(C(=O)OCC(C)C)cc2)c2ccccc2n1 -0.828%
Cc1ccccc1CNC(=O)c1ccc(Cn2c(SCc3cccc(F)c3)nc3cccnc32)cc1 2.15%
COc1ccc(-c2ccc(NS(=O)(=O)c3cccc(Cl)c3)cc2)nn1 -1.88%
O=C(NCc1ccccc1Cl)C1CCC(CNS(=O)(=O)c2ccc(Cl)cc2)CC1 (stereo unspecified) 8.7%
COc1cccc(NC(=O)N2CCC(n3c(C)nc4cccnc43)CC2)c1 2.96%
COc1ccc(CNC(=O)C2CCN(Cc3nc(-c4ccc(OC)c(OC)c4)oc3C)CC2)cc1 1.93%
Cc1ccc(-c2cc(C(F)(F)F)n3nc(-c4ccc(Cl)cc4)cc3n2)cc1 -3.5%
CCCCN(CC)CCNC(=O)c1cn(CCOC)c(=O)c2c1c1ccccc1n2C 5.81%
CCOc1ccc(C(=O)c2cn(Cc3ccccc3OC)c3cc4c(cc3c2=O)OCCO4)cc1 -4.44%
COc1ccccc1N1CCN(C(=O)c2sc3nc4n(c(=O)c3c2C)CCC4)CC1 7.1%
CCOC(=O)c1ccc(NC(=O)CSc2ccc(-c3sc(C)nc3C)nn2)cc1 0.355%
O=C(NC1CC(=O)N(c2cccc(F)c2)C1)c1ccc(S(=O)(=O)N2CCOCC2)cc1 (stereo unspecified) 9.47%
CCOC(=O)c1ccc(NC(=O)c2cn(-c3ccccc3)nc2-c2ccc(Br)cc2)cc1 -5.02%
COc1ccc(Cn2ccc3nc(C)c(C(=O)N4CCN(c5ccccc5)CC4)cc3c2=O)cc1 7.63%
O=C(c1cn(CCOc2ccccc2F)c2ccccc12)C1CCCCC1 0.0919%
Cc1ccc(Nc2sc(C(=O)c3ccccc3)c(N)c2C(=O)NC(C)C)cc1 -12.8%
Cc1cccc(Cn2cc(C(=O)c3ccccc3)c(=O)c3cc4c(cc32)OCO4)c1 5.06%
Cc1nc2ccn(Cc3cccs3)c(=O)c2cc1C(=O)NCc1ccccc1 -3.68%
COc1ccc(NC(=O)CSc2oc(-c3cccs3)nc2S(=O)(=O)c2ccc(Br)cc2)c(OC)c1 1.78%
CCOc1ccc2c(c1)[C@@H]1C=CC[C@@H]1[C@H](c1ccccc1Cl)N2 -8.69%
Cc1ccc(CCNC(=O)CN2C(=O)COc3ccc(S(=O)(=O)N4CCCCC4)cc32)cc1 24.3%
O=C(NCCc1ccccc1)c1ccc2c(c1)N(Cc1ccccc1)C(=O)c1ccccc1S2=O (stereo unspecified) -13.3%
Cc1cccc(-c2nc3c(cnn3-c3ccccc3)c(=O)n2-c2cccc(Cl)c2)c1 7.11%
CC(C)(C)OC(=O)N1CCC(c2c(C(=O)Nc3ccc4c(c3)OCCO4)cnn2-c2ccc(F)cc2)CC1 -14.4%
Cc1ccc(CNC(C)c2ccccc2)s1 (stereo unspecified) 39.2%
Cn1cnc2c(=O)oc3ccc(S(=O)(=O)N4CCN(c5ccccc5)CC4)cc3c21 -7.29%
CC(C)(C)OC(=O)N1CCC(c2c(C(=O)Nc3cccc(C(F)(F)F)c3)cnn2-c2ccc(F)cc2F)CC1 13.4%
CCN(CC)S(=O)(=O)c1ccc2c(c1)c(=O)c(C(=O)N(C)Cc1ccccc1)cn2C -5.93%
CN(C)c1ccc(CNC(=O)c2cc3ccccn3n2)cc1 14.6%
CN(C)c1ccc(C(CNC(=O)Cc2ccc(Cl)cc2)N2CCOCC2)cc1 (stereo unspecified) 7.34%
O=C1CN(C(=O)c2ccc(Cl)cc2Cl)C(c2ccc(F)cc2)c2cc(F)ccc2N1 (stereo unspecified) 3.8%
Cc1cc(OCC(=O)Nc2cnn(CCCC(=O)O)c2)ccc1Cl 2.03%
Cc1nn(-c2ccccc2)c(-n2cccc2)c1C(=O)NCc1ccccc1Cl 18.9%
COc1ccc(C)cc1NC(=O)c1cc2c(s1)-c1ccccc1SC2 7.96%
CC(=O)Nc1cc(C(=O)NCc2ccc(F)cc2)ccc1Sc1ccc(C)cc1 -4.92%
Cc1ccc(S(=O)(=O)c2nc(-c3ccco3)oc2SC(C)C)cc1 4.6%
COc1ccc(CCNC(=O)Cc2c(C)c3c(cc(C)c4c(C)c(C)oc43)oc2=O)cc1OC -4.97%
O=C(NCc1cccs1)c1nn(-c2ccccc2)nc1CO -0.98%
CCOc1ccc(NC(=O)CSc2cc(C)c3ccccc3n2)cc1 -1.42%
CCCn1c2ccccc2c2cnn(CC(=O)Nc3cccc(C(=O)OCC)c3)c(=O)c21 -0.919%

outcome, inactive:
COc1cccc(Cn2c(=O)n(-c3ccc(C)c(F)c3)c(=O)c3sc4ccccc4c32)c1
COc1ccc(N2CCN(C(=O)c3cc(S(=O)(=O)N4CCCCCC4)cn3C)CC2)cc1
Cc1ccc2oc(C(=O)N(Cc3cccc(F)c3)C3CCS(=O)(=O)C3)c(C)c2c1 (stereo unspecified)
Cc1ccc(N(CC(C)C)S(=O)(=O)c2nnc(NC(=O)c3ccco3)s2)cc1
O=C(COC(=O)C(Cc1c[nH]c2ccccc12)NC(=O)c1ccc(Br)cc1)c1ccc(Cl)cc1 (stereo unspecified)
COc1cccc(OC)c1C(=O)Nc1nnc(C)s1
CCC(=O)N1CCc2cc(S(=O)(=O)CCC(=O)Nc3ccc(Cl)c(C(F)(F)F)c3)ccc21
COc1ccccc1CN1COc2ccc3c(C)cc(=O)oc3c2C1
Cc1ccc(NC(=O)Cn2c(=O)oc3ccccc32)cc1Cl
COc1ccc(C(=O)c2oc3ccccc3c2NC(=O)c2ccc(F)cc2)cc1
CCc1nonc1NC(=O)c1oc2cc(C)c(Cl)cc2c1C
Cc1ccc(Nc2nnc(-c3ccc(C)c(S(=O)(=O)N4CCCCC4)c3)c3ccccc23)cc1
COc1ccc(C2C(=O)N(C3CCCCCC3)CC(=O)N2CCc2ccccc2)cc1 (stereo unspecified)
Cc1ccc(C)c(NC(=O)CCCN2C(=O)COc3ccc(C)cc32)c1
Cc1cc(C)cc(NC(=O)CSc2nnc(COc3ccccc3Cl)o2)c1
CCOC(=O)C1CCN(C(=O)CSc2n[nH]c(-c3ccccc3Cl)n2)CC1
CC1CCN(S(=O)(=O)c2ccc3ncn(CC(=O)Nc4ccccc4C(F)(F)F)c(=O)c3c2)CC1
CCOC(=O)CC(NC(=O)Cn1nnc(-c2ccc(C(F)(F)F)cc2)n1)c1ccccc1Cl (stereo unspecified)
Cc1ccc(NC(=O)Cn2c(=O)n(-c3ccc(C)cc3)c(=O)c3ccc(C(=O)NCc4ccccc4Cl)cc32)cc1
